Test results reported in paper PMC4336329 (PLoS ONE, 2015).
Among all 310,000 compounds or so, about 14,000 (4.5%) showed an effect of 50% or more. Effects have a minus sign here. Some of the results follow.

molecular target: human ether-à-go-go-related gene (hERG) potassium channel (human, UniProt Q12809); assay: primary screen, population patch clamp on CHO cells stably expressing hERG
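Also: peak tail current of the secondary pulse compared with the same well before compound.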

Sequence of human ether-à-go-go-related gene (hERG) potassium channel (Q12809 whole entry, looked up): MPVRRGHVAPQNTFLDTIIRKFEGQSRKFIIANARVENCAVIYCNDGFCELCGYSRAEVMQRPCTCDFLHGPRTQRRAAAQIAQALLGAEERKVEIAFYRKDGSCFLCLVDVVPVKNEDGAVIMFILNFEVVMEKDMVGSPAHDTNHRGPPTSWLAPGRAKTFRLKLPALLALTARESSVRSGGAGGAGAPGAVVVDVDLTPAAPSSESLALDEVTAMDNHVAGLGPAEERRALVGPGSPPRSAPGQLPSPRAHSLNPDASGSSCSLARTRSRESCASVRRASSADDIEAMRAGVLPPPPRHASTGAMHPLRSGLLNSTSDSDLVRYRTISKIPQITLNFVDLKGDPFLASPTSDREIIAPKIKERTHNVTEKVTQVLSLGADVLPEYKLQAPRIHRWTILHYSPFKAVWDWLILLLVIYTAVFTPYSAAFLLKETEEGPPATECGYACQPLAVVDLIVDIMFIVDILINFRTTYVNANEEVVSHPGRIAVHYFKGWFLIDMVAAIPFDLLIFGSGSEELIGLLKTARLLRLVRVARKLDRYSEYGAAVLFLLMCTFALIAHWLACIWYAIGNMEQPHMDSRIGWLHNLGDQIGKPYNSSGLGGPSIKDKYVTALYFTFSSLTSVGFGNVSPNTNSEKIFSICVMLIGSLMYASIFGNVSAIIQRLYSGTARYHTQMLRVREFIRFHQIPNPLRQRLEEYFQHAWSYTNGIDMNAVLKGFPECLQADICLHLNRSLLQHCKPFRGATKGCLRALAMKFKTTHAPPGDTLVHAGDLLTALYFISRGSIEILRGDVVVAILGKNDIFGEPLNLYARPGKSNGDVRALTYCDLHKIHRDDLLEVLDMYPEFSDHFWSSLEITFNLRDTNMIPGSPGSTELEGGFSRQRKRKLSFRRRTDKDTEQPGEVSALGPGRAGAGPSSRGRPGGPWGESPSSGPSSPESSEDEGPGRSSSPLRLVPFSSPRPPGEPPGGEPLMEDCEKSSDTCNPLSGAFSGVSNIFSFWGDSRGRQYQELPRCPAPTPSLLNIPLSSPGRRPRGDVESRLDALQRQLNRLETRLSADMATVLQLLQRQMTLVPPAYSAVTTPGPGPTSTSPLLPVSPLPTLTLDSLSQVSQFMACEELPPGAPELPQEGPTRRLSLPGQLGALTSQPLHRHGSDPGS

Structure (SMILES) | hERG current change (%, negative = inhibition) at 10uM [%]
Cc1ccc(N2CN(Cc3cccnc3)CNC2=S)cc1 | 4.71
COCCN(CCOC)C(=O)CN1C(=O)NC2(CCCc3sccc32)C1=O (centres unmarked) | 20.6
COc1ccccc1CNC(=O)CN(C)S(=O)(=O)c1cccc2cccnc12 | -3.12
CCSc1nnc2c(n1)OC(c1ccc(C(=O)O)cc1)N(C(C)=O)c1ccccc1-2 (centres unmarked) | 2.28
S=C1NCCc2ccccc2C1c1ccccc1 (centres unmarked) | -14.5
COC(=O)CC1C(=O)NCCN1C(=O)CSc1nc2ccccc2s1 (centres unmarked) | 20.6
COCCn1c(=N)c(C(=O)NCc2ccco2)cc2c(=O)n3ccccc3nc21 | -78.1
O=S(=O)(NCc1csc(-c2cccs2)n1)c1cccc(C(F)(F)F)c1 | -22
CCC(=O)Nc1cc(C(=O)OCC(=O)c2ccccc2Cl)ccc1C | 14.8
Cc1cc(C)cc(OCC(=O)NNC(=O)c2ccccn2)c1 | -34.6
O=C(COc1ccc(Cl)cc1)NC(=S)Nc1ccccc1N1CCOCC1 | 17.4
O=C(c1ccc(F)cc1Cl)N1CCN(CCc2ccccc2)CC1 | -44
CNCc1ccccc1Sc1cccc(O)c1.O=C(O)/C=C\C(=O)O | 7.03
Cc1ccc(-n2ncc3c2CCCC3NC(=O)CCCN2CCCC2=O)cc1C (centres unmarked) | -7.79
COCc1ccc(C(=O)N2CCCC(Nc3ccc4c(c3)OCCO4)C2)o1 (centres unmarked) | 11.2
COC(=O)c1c(NC(=O)c2cccs2)sc2c1CCC(C)C2 (centres unmarked) | 6.28
CC1(C)CC(NC(=O)Cc2ccccc2)CC(C)(C)N1.Cl | 14.8
O=C(Cc1c(F)cccc1Cl)NCC(=O)OCc1ccccc1 | 0.129
CCOC(=O)/C(C#N)=C\c1ccc2c(c1)OCO2 | 1
Cc1cccc(NC(=S)NC2CC3CCC(C2)N3Cc2ccco2)c1C (centres unmarked) | -14.6
O=C(Nc1ccccc1F)Nc1ccccc1OC(F)F | -0.73
COc1cc(NC(=O)[C@@H](NC(=O)N2CCn3c2nc2ccccc23)C(C)C)cc(OC)c1 | 18.9
N#Cc1nc(COc2ccccc2)oc1N1CCCCCC1 | -23.5

Structure (SMILES) | hERG current change (%, negative = inhibition) at 10uM [%]
COC(=O)/C=C/COc1ccccc1[N+](=O)[O-] | 14.3
COc1cccc(CNC(=O)c2cccc(NC3=NC4CS(=O)(=O)CC4S3)c2)c1 (centres unmarked) | 15.3
COc1ccccc1CNc1ccc(C(=O)O)cc1 | 12.9
CCCCNS(=O)(=O)c1ccc2nc(SCC(=O)Nc3cccc(F)c3)[nH]c2c1 | -10.2
COc1ccc(OCCOC(=O)CN2C(=O)NC3(CCCC3)C2=O)cc1 | 14.2
O=C(Cn1c(=O)cnc2ccccc21)Nc1cccc(S(=O)(=O)N2CCOCC2)c1 | -21
O=C(Nc1ccc(N2CCOCC2)c(Cl)c1)c1ccc2c(c1)OCCO2 | -0.379
O=C(Nc1cc(S(=O)(=O)N2CCCCC2)ccc1Cl)c1ccccc1NS(=O)(=O)c1ccc(F)cc1 | 16.2
Cc1ccc(S(=O)(=O)NCCOc2nc(N3CCOCC3)nc(N3CCOCC3)n2)cc1 | -18.6
Fc1ccc(NCc2nnc(SCc3ccccc3)o2)cc1 | -13.3
CC(C)CC(=O)Nc1ccc(Oc2ccc3c(c2)C(=O)NC3=O)cc1 | 10.9
Cc1cc(C(=O)NC2CC2)c2ccccc2n1 | 19.9
CN(C(=O)c1ccc2nc(N)sc2c1)c1ccccc1 | 15
COc1ccccc1NC(=O)CN1CCSc2ccccc21 | 2.2
O=S(=O)(Nc1cccc(-c2ccc(N3CCOCC3)nn2)c1)c1ccc(Cl)c(Cl)c1 | -19
CC1CCN(c2nc3ccc(C(=O)N4CCN(Cc5ccccc5)CC4)cc3s2)CC1 | -17.1
Cc1nc(NC(=O)CSC2=NCCS2)sc1C(=O)N(C)C | -12
Cc1cccnc1NC(=O)c1ccc(Cl)c(S(=O)(=O)N2CCCC2)c1 | -9.58
O=c1c(Cl)c(Cl)cnn1Cc1ccc(F)cc1 | 3.54
Cc1nn(-c2nnc(C)c(=O)[nH]2)c(C)c1SCC(=O)Nc1ccc(C(C)C)cc1 | 8.99
COC(=O)c1ccc(C(=O)Nc2cc(Cl)ccc2Cl)cc1NC(=O)c1ccc(N(C)C)cc1 | 12.6
COc1ccc(C(=O)Nc2nc3ccccc3[nH]2)cc1S(=O)(=O)N1CCOCC1 | -70.1
CC(C)CC(=O)NC(NC(=O)CC(C)C)c1cccc([N+](=O)[O-])c1 | 13.6

Structure (SMILES) | hERG current change (%, negative = inhibition) at 10uM [%]
Cc1ccc(S(=O)(=O)NCCC(=O)OCC(=O)N(Cc2ccccc2)C(C)(C)C)cc1C | -9.35
CCCCCCSc1ccc([C@@H]2[C@@H]3C(=O)N(C)C(=O)[C@@H]3[C@]3(C(=O)OC)CCCCN23)cc1OC.O=C(O)C(F)(F)F | -5.95
O=C(NCc1ccccc1Cl)c1ccc2ccccc2n1 | -1.85
CCOC(=O)CC(NC(=O)CCc1c(C)nc2nc(C)nn2c1C)c1ccc(C)cc1 (centres unmarked) | 6.14
C=CCn1cc(Cl)c(=O)n(CC=C)c1=O | 1.11
CSc1c2c(nc3ncnn13)CCC2 | 1.7
O=C(c1ccc2c(c1)OCCO2)N1CCN(S(=O)(=O)c2c(F)cccc2F)CC1 | 7.53
CC(C)CCn1nnnc1C(c1ccccc1)N1CCN(C)CC1 (centres unmarked) | -7.42
O=C(c1cc(Cl)nc2ccccc12)N1CCc2ccccc2C1 | -19.5
S=c1[nH]nc(C2CCCCC2)n1/N=C/c1ccco1 | 6.41
COc1ccc(C(=O)NCCn2ccc3ccccc32)c(OC)c1 | -12.5
CCOC(=O)C(N)CSC1CC(=O)N(c2ccc(OCC)cc2)C1=O.Cl (centres unmarked) | -3.53
COc1ccc(OC)c(/C=N/NC(=O)CC(=O)NCc2ccccc2)c1 | 1.66
CCOC(=O)CC/C(=N\NC(N)=O)c1ccc(OC)c(Cl)c1 | -14.9
O=C(CSc1nc(-c2ccccc2)cs1)Nc1ccccc1[N+](=O)[O-] | 19.4
O=C(Nc1ccncc1)C1CC(=O)N(c2ccc(F)cc2)C1 (centres unmarked) | 9.63
Cc1ccc(S(=O)(=O)N2CCC(C(=O)OC(C)C(=O)N3CCOCC3)CC2)cc1 (centres unmarked) | -0.985
Cc1cc(NC(=O)c2cc(C(C)C)on2)no1 | -5.74
CCc1noc(C)c1C(=O)Nc1cc(S(=O)(=O)N(CC)CC)ccc1N1CCCC1 | -33.2
Cc1c(-c2ccccc2)[nH]n2c(=O)c3c(nc12)CCCC3 | 0.363
O=C(COc1ccccc1)Nc1ccc(CN2CCCCC2)cc1 | -26.9
CCN(c1ccccc1)c1nc2nonc2nc1NCCO | 14.3
CCOc1ccc(C(=O)NCC(=O)OCC(=O)Nc2cccc(S(=O)(=O)N3CCCC3)c2)cc1 | -15.7

Structure (SMILES) | hERG current change (%, negative = inhibition) at 10uM [%]
O=C(COC(=O)/C=C/c1ccc([N+](=O)[O-])cc1)NC(c1ccccc1)c1ccccc1 | -18.4
COc1ccccc1N(C)S(=O)(=O)c1ccc(C(=O)NC(C)c2ccccc2)cc1 (centres unmarked) | -43.7
CC(C(=O)Nc1ccccc1-c1ccccc1)N1CCN(C(=O)c2ccccc2)CC1 (centres unmarked) | -66.9
COc1ccc(C2=C(Nc3ccc(F)cc3)c3ccccc3C2=O)cc1 | 12.8
O=C(Nc1ccc(F)cc1)C1CCCCC1 | -3.1
CCOc1cc(S(=O)(=O)Nc2ncn[nH]2)ccc1Br | 14.4
NC(N)=Nc1nc2cc([N+](=O)[O-])ccc2o1 | 27.6
CCCCOC(=O)n1c(=S)oc2cc(Cl)ccc21 | 17.7
COc1cc(NC(=O)CN(C)S(=O)(=O)c2ccc3nc(C)sc3c2)cc(OC)c1 | 23.8
COc1cc(CNc2ccc3[nH]c(=O)[nH]c3c2)cc(Br)c1OCc1ccc(F)cc1 | 22.7
CCC1=Nc2cc(C(=O)N3CCC4(CC3)OCCO4)ccc2Sc2ccc(C)cc21 | -7.16
CC(C)(C)c1ccc(-c2noc(CCC(=O)Nc3cccnc3)n2)cc1 | 6.82
COc1ccc(C(=O)COC(=O)c2cncc(Br)c2)cc1 | 1.2
O=C(CSc1ccc(Cl)cc1)NC(=O)NCc1ccco1 | 3.87
COc1cc(/C=N/NC(=O)C2c3ccccc3Oc3ccccc32)ccc1O | 12.4
CN(C)S(=O)(=O)c1cc(NC(=O)CN2CCOCC2)ccc1Cl | 17.7
Cc1ccsc1/C=N/NC(=O)C(O)c1ccccc1 (centres unmarked) | 15.2
CN(C)CCCNC(=S)NCCNc1nc2cc3c(cc2cc1C#N)OCO3 | -29.9
CCOC(=O)c1sc(NC(=O)C(CC)Sc2nnc3c4ccccc4n(CC)c3n2)nc1C (centres unmarked) | -59.4
O=C1CN(C(=O)COc2ccccc2F)c2ccccc2N1 | -1.54
